Laboratory results taken from PMC3002266.
Results are given in words; binding and its absence hold for the method and conditions named. Some entries that bind do so weakly or less than the wild type. Where a sequence is shown, tags or fusion partners need not be part of it.

The chains behind the UniProt entries cited, without tags or fusion partners.
UniProt P62993: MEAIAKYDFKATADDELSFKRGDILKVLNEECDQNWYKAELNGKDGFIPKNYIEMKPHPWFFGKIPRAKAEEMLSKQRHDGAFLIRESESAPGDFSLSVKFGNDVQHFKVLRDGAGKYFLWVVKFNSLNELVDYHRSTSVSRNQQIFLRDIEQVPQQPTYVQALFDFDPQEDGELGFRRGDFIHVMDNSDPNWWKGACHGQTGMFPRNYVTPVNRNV

T1: EGFP-Bro1-V (1-704) (human) (UniProt Q9H3S7)
T1 sequence: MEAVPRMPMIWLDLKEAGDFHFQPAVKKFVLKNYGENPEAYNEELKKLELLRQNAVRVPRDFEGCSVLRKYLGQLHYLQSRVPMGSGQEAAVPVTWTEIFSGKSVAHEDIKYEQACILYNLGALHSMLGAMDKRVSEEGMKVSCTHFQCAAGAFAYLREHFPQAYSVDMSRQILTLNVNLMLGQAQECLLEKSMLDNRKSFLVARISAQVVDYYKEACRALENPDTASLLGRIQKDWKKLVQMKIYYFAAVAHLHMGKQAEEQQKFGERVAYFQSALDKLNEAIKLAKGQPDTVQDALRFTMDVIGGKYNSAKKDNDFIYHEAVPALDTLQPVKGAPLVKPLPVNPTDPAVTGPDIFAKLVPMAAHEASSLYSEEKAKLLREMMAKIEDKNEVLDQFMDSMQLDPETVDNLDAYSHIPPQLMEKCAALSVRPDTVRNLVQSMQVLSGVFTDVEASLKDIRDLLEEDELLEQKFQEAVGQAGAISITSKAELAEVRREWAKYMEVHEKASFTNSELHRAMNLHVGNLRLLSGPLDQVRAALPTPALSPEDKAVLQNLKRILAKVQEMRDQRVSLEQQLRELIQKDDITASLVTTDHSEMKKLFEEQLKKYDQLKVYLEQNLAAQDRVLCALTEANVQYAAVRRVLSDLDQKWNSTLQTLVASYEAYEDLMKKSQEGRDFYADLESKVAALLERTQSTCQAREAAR

T2: EGFP-HD (705-1128) (human) (UniProt Q9H3S7)
T2 sequence: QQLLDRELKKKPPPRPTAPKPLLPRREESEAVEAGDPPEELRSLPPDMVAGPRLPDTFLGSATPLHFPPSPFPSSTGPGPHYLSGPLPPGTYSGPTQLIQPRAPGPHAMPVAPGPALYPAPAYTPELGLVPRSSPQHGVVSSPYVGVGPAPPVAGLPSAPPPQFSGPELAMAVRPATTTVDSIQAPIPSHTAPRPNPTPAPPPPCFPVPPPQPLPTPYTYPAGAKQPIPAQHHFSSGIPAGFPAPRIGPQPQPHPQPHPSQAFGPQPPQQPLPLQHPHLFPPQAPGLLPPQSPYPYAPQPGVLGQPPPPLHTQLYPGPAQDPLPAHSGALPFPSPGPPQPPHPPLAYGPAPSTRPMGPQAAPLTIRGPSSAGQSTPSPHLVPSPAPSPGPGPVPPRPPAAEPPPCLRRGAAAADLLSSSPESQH

T3: EGFP-PTPc (1171-1475) (human) (UniProt Q9H3S7)
T3 sequence: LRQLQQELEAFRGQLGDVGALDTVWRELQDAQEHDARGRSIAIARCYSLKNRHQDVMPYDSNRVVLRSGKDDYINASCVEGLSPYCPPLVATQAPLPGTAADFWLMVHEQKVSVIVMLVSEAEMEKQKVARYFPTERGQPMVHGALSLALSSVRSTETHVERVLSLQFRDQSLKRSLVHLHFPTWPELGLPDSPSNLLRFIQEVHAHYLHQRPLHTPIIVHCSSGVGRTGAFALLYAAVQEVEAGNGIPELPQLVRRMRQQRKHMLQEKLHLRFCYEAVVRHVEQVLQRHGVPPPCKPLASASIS

T4: EGFP-VHD (401-1128) (human) (UniProt Q9H3S7)
T4 sequence: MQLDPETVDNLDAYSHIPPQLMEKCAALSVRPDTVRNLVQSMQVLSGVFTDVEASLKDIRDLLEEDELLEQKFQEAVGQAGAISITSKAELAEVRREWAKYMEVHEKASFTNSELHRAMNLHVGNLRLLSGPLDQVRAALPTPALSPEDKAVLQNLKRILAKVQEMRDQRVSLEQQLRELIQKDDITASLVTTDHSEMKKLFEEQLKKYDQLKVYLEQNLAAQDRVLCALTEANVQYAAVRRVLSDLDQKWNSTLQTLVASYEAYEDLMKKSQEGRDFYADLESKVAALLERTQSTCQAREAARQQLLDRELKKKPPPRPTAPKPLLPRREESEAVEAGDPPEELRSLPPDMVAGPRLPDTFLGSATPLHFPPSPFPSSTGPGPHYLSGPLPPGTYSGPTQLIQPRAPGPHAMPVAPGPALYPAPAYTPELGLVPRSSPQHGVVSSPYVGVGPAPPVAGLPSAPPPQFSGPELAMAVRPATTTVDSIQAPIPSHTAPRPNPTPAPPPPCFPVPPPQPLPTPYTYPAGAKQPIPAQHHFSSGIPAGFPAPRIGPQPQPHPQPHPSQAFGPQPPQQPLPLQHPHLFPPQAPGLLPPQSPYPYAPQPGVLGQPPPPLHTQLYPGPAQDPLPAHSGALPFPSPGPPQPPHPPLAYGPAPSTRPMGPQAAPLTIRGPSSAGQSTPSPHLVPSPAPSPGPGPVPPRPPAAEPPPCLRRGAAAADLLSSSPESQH

T5: EGFP-V-domain (401-700) (human) (UniProt Q9H3S7)
T5 sequence: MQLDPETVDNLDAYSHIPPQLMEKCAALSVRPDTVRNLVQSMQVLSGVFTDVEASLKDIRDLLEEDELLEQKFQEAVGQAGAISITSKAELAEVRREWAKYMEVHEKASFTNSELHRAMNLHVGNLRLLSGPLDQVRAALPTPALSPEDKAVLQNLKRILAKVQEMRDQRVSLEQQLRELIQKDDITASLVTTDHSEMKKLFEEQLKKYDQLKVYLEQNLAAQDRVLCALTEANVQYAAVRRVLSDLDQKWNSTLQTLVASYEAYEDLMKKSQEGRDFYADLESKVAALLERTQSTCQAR


How the values were obtained:
Experiment in all cases: far-Western, overlay or dot blot; lysates of HEK293T cells expressing HD-PTP mutants separated by SDS-PAGE and blotted on PVDF; overlay with 50 ng/ml GST-Grb2 or 100 ng/ml GST-GrpL overnight at 4°C; detected with anti-GST; only the binder purified
[1] = biological target: T1, EGFP-Bro1-V (1-704) (human)
[2] = biological target: T2, EGFP-HD (705-1128) (human)
[3] = biological target: T3, EGFP-PTPc (1171-1475) (human)
[4] = biological target: T4, EGFP-VHD (401-1128) (human)
[5] = biological target: T5, EGFP-V-domain (401-700) (human)
[6] = biological target: EGFP-ΔPEST (HD-PTP lacking amino acid residues 1508-1595) (human) (UniProt Q9H3S7)

Row | Molecule | binding [1] | binding [2] | binding [3] | binding [4] | binding [5] | binding [6]
1 | GST-Grb2 (from UniProt P62993 1-217) | no binding (tested: 50 ng/ml GST-Grb2) | binds | no binding (tested: 50 ng/ml GST-Grb2) | binds |  | 
2 | GST-GrpL (protein, UniProt O75791 1-330) MEAVAKFDFTASGEDELSFHTGDVLKILSNQEEWFKAELGSQEGYVPKNFIDIQFPKWFHEGLSRHQAENLLMGKEVGFFIIRASQSSPGDFSISVRHEDDVQHFKVMRDNKGNYFLWTEKFPSLNKLVDYYRTNSISRQKQIFLRDRTREDQGHRGNSLDRRSQGGPHLSGAVGEEIRPSMNRKLSDHPPTLPLQQHQHQPQPPQYAPAPQQLQQPPQQRYLQHHHFHQERRGGSLDINDGHCGTGLGSEMNAALMHRRHTDPVQLQAAGRVRWARALYDFEALEDDELGFHSGEVVEVLDSSNPSWWTGRLHNKLGLFPANYVAPMTR | no binding (tested: 100 ng/ml GST-GrpL) | binds | no binding (tested: 100 ng/ml GST-GrpL) | binds | no binding (tested: 100 ng/ml GST-GrpL) | binds
